# Data as given in the supplement of paper PMC12217912.
# The list shows a part of the results. Sequences were assembled here from the parent chain. Inactive controls read about 0.05.
# B1: TEV protease; numbered along this chain (parent)
# chain: MGESLFKGPRDYNPISSSICHLTNESDGHTTSLYGIGFGPFIITNKHLFRRNNGTLVVQSLHGVFKVKDTTTLQQHLVDGRDMIIIRMPKDFPPFPQKLKFREPQREERICLVTTNFQTKSMSSMVSDTSCTFPSGDGIFWKHWIQTKDGQCGSPLVSTRDGFIVGIHSASNFTNTNNYFTSVPKNFMELLTNQEAQQWVSGWRLNADSVLWGGHKVFMVKPEEPFQPVKEATQL
# Variants of: B1
# Experiment: raw area under fraction-flipped curve 0-4 h after induction (AUC4h, not background-subtracted), DNA-recorder readout of cleavage of the substrate (dimensionless); higher = more cleavage of the substrate by the protease variant
# Details: temperature: 34 °C; time window: 0-4 h after rhamnose induction
# 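Also: Bxb1 expression induced with 0.2% (w/v) L-rhamnose at OD600 near 0.5, cultures sampled hourly, flipped fraction per protease–substrate barcode pair counted by paired-end Illumina sequencing.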
Variant,area with substrate ENLYFQD,area with substrate ENLYFQG,area with substrate ENLYFQI,area with substrate ENLYFQK,area with substrate ENLYFQL,area with substrate ENLYFQM,area with substrate ENLYFQQ,area with substrate ENLYFQR,area with substrate ENLYFQS,area with substrate ENLYFQT,area with substrate ENLYFQY,area with substrate ENLYFQF,area with substrate ENLYFQH,area with substrate ENLYFQN,area with substrate ENLYFQV,area with substrate ENLYFQW,area with substrate ENLYFQC,area with substrate ENLYFQE,area with substrate ENLYFQP
P89N,0.0628,0.0939,0.0428,0.0576,0.0462,0.0713,0.067,0.0581,0.0847,0.0582,0.0686,,,,,,,,
S60H,0.0698,0.133,0.0633,,0.0647,0.0874,,0.0615,0.105,0.076,,0.0974,0.0695,0.0751,0.0623,0.0656,,,
I164D,0.0511,0.0502,0.0552,0.0429,0.0532,0.0545,0.0395,0.0474,0.057,,0.0409,0.0683,0.0909,0.0472,0.0715,0.0567,0.0547,,
R50H,0.0707,0.0874,,0.0707,,,0.0821,0.0696,0.115,,,,,,0.0644,0.0649,,0.0816,0.0543
E223K,0.0685,0.104,0.0639,0.0618,,0.0842,,0.0523,0.0982,0.0785,0.0687,,0.0753,0.0715,,0.0704,0.0861,,0.0627
S201R,,,0.0538,0.0736,0.0562,0.104,,,0.101,,0.0652,,0.107,0.0739,,0.0789,0.0607,,
W141A,,,0.0462,0.0635,0.0561,0.0592,,,0.0574,0.0585,0.0591,,0.0634,,,0.0561,,0.0438,0.0552
P155D,,,0.0514,0.0544,0.0556,0.0462,0.0376,0.0587,0.0506,0.0514,0.052,0.0458,0.0379,0.053,,0.0436,,,
I84G,,0.0616,0.0463,,0.0499,0.0552,,0.0506,0.0669,0.0569,,0.0563,,0.0423,0.0471,0.0528,,0.0982,0.051
S158G,,0.096,0.133,,0.0688,0.11,,0.0456,0.109,,,0.0761,0.071,0.0716,0.0618,0.0598,,,0.0579
I85R,,,0.0584,0.0752,0.0592,0.0573,,,0.0578,,0.0487,,0.0634,0.077,0.0581,,,,
H215C,,,,,0.0598,0.101,,0.0584,0.0733,0.0489,,,0.0647,0.0761,,0.0532,,,0.0463
V220M,0.0643,,0.0527,0.0648,0.0532,,,0.0478,0.111,0.0671,,0.0831,,0.0826,0.0573,0.0557,,,0.0586
E231C,0.072,0.0726,0.0555,0.0626,0.0746,0.0999,,,0.0966,0.0414,0.074,,,,0.0674,0.0693,0.162,,0.0431
K221F,0.0811,0.0918,,0.0637,0.0573,0.0696,0.0629,0.0638,0.0945,0.0606,,0.0621,0.0669,0.0899,0.0593,0.0591,0.101,,0.0579
